In this experiment the test system is MDA-MB-468 breast. In words: NCI-60 cell line screen, 48 h.

Structures are written as SMILES.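 In this assay, cells in 96-well plates receive the compound at five concentrations for 48 hours. Endpoints are linearly interpolated between the surrounding concentrations. Definition used: TGI = concentration required for complete inhibition of growth.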 Some entries of the source have several records that differ or are many. The list is limited to them. An entry can have further records. A record mostly stands for its own series of concentrations, which the source does not state; some values may only mark the edge of a range.

With `CC(=O)O[C@@]12CO[C@@H]1C[C@H](O)[C@@]1(C)C(=O)[C@H](O)C3=C(C)[C@@H](OC(=O)[C@H](O)[C@@H](NC(=O)OC(C)(C)C)c4ccccc4)C[C@@](O)([C@@H](OC(=O)c4ccccc4)C12)C3(C)C` (stereo partly specified), the TGI was 11.3 µM and 46 nM.

The record behind these values is PubChem BioAssay (NCI).
